According to the supplement of paper PMC4604168 (melanoma cell lines):
The list shows a part of the results. Most values come without repeats; read them as rough.

Tests used:
Assay in all cases: cell count relative to DMSO control; melanoma cells; higher = more viable cells
Details in all cases: library dose: low library concentration; 72 h
MZ2-MEL = system: MZ2-MEL
MeWo = system: MeWo
RPMI7951 = system: RPMI7951
RVH-421 = system: RVH-421
SkMel28 = system: SkMel28
SkMel2 = system: SkMel2
SkMel30 = system: SkMel30
SkMel5 = system: SkMel5
UACC257 = system: UACC257
UACC62 = system: UACC62
WM115 = system: WM115
WM1716 = system: WM1716
WM1745 = system: WM1745
WM3526 = system: WM3526
WM3619 = system: WM3619
WM451Lu = system: WM451Lu
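Further: cell number obtained by counting DAPI-stained nuclei in high-throughput microscope images with image analysis software, screen run in 1,536-well plates.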

SMILES	cell count (MZ2-MEL) [%]	cell count (MeWo) [%]	cell count (RPMI7951) [%]	cell count (RVH-421) [%]	cell count (SkMel28) [%]	cell count (SkMel2) [%]	cell count (SkMel30) [%]	cell count (SkMel5) [%]	cell count (UACC257) [%]	cell count (UACC62) [%]	cell count (WM115) [%]	cell count (WM1716) [%]	cell count (WM1745) [%]	cell count (WM3526) [%]	cell count (WM3619) [%]	cell count (WM451Lu) [%]
CN1CCN(c2ccc3nc(-c4c(N)c5c(F)cccc5[nH]c4=O)[nH]c3c2)CC1 [Dovitinib] + O=C(Oc1ccc([N+](=O)[O-])cc1)N1CCC(C(O)(c2ccc3c(c2)OCO3)c2ccc3c(c2)OCO3)CC1 [JZL184] (first compound 0.1 µM, partner dose 1 µM)	88.2	90.3	92.5	100	85.8	101	66.6	75.8	89.2	73	87.7	88	76	80.7	100	102
O=C(O)c1ccc2c(c1)nc(Nc1cccc(Cl)c1)c1ccncc12 + C[As](C)SC[C@H](NC(=O)CC[C@H](N)C(=O)O)C(=O)NCC(=O)O [Darinaparsin] (first compound 0.4 µM, partner dose 0.4 µM)	94.1	86.5	107	80.2	87.8	96	79.7			81.4	98.9	87.3	80.7	75.1	112	86
Cc1nc(Nc2ncc(C(=O)Nc3c(C)cccc3Cl)s2)cc(N2CCN(CCO)CC2)n1 [dasatanib] + C/C(O)=C(\C#N)C(=O)Nc1cc(Br)ccc1Br [LFM-A13] (first compound 0.004 µM, partner dose 2 µM)	77	89.5	68.7	90.6	73.7		87.3	88.2	83.9	80.9	65	87.7	60	103	98.4	87
Nc1ccn([C@@H]2O[C@H](CO)[C@@H](O)C2(F)F)c(=O)n1 [gemcitabine] + O=C(Oc1ccc([N+](=O)[O-])cc1)N1CCC(C(O)(c2ccc3c(c2)OCO3)c2ccc3c(c2)OCO3)CC1 [JZL184] (first compound 0.0004 µM, partner dose 1 µM)	96	94.5	94.6	95.5	85.3	101	92.8	82.8	93.4	75.3	97.6	100	57.3	111	78.7	116
Cc1cc(Nc2cc(N3CCN(C)CC3)nc(Sc3ccc(NC(=O)C4CC4)cc3)n2)n[nH]1 [Tozasertib] + Cn1cc(C2=C(c3cn(C4CCN(Cc5ccccn5)CC4)c4ccccc34)C(=O)NC2=O)c2ccccc21 [Enzastaurin] (first compound 0.006 µM, partner dose 0.8 µM)	94.7	96.4	95.7	127	92.9	98.4	109			104	84.9	118	79.1	100	85.9	96.6
Clc1ccc(Nc2nnc(Cc3ccncc3)c3ccccc23)cc1 [vatalanib] + O=C(Oc1ccc([N+](=O)[O-])cc1)N1CCC(C(O)(c2ccc3c(c2)OCO3)c2ccc3c(c2)OCO3)CC1 [JZL184] (first compound 2 µM, partner dose 1 µM)	85.9	84.4	98.6	88.4	85.5	106	115	71.4	80	87.8	90.9	91.3	91.8	98.4	75.8	104
C=CCn1c(=O)c2cnc(Nc3ccc(N4CCN(C)CC4)cc3)nc2n1-c1cccc(C(C)(C)O)n1 + Cc1cc(SCc2sc(-c3ccc(C(F)(F)F)c(F)c3)nc2C)ccc1OCC(=O)O [GW0742] (first compound 0.02 µM, partner dose 2 µM)	97.1	86.2	112	113	73.9		84.4	82.2	79	80.3	78	80.4	82.6	69.2	94.3	105
O=C(O)c1ccc2c(c1)nc(Nc1cccc(Cl)c1)c1ccncc12 + Cc1cc(SCc2sc(-c3ccc(C(F)(F)F)c(F)c3)nc2C)ccc1OCC(=O)O [GW0742] (first compound 0.4 µM, partner dose 2 µM)	87.8	99.7	105	96.3	115	104	104	116	93.3	91.2	120	96.6	92.5	83	99.4	111
CC(C)C[C@H](NC(=O)[C@H](Cc1ccccc1)NC(=O)c1cnccn1)B(O)O [Bortezomib] + C/C(O)=C(\C#N)C(=O)Nc1cc(Br)ccc1Br [LFM-A13] (first compound 0.001 µM, partner dose 2 µM)	68.9	82.7	88.8	72.5	80	85.2	85.8	102	70.5	74.7	97.6	33.9	77.7	82.1	23.2	84.1
CN1CCN(c2ccc3nc(-c4c(N)c5c(F)cccc5[nH]c4=O)[nH]c3c2)CC1 [Dovitinib] + C[As](C)SC[C@H](NC(=O)CC[C@H](N)C(=O)O)C(=O)NCC(=O)O [Darinaparsin] (first compound 0.1 µM, partner dose 0.4 µM)	89.6	79.9	88.5	80.2	87.9	102	78.1			80.8	88.7	114	93.1	85.7	96.1	99.5
CN1CCN(c2ccc3nc(-c4c(N)c5c(F)cccc5[nH]c4=O)[nH]c3c2)CC1 [Dovitinib] + C/C(O)=C(\C#N)C(=O)Nc1cc(Br)ccc1Br [LFM-A13] (first compound 0.1 µM, partner dose 2 µM)	83.9	84.9	103	107	74.7	105	97.6	104	97.6	78.9	101	107	85.8	95	84.5	116
Cc1cc(Nc2cc(N3CCN(C)CC3)nc(Sc3ccc(NC(=O)C4CC4)cc3)n2)n[nH]1 [Tozasertib] + N.N.[Cl][Pt][Cl] [cisplatin] (first compound 0.006 µM, partner dose 1.6 µM)	0.893	84.8	82.9	89.3	92.8	92	99.7			106	85.9	80.3	99.5	82.6	99.9	90.9
O=C(O)c1ccc2c(c1)nc(Nc1cccc(Cl)c1)c1ccncc12 + O=C(Oc1ccc([N+](=O)[O-])cc1)N1CCC(C(O)(c2ccc3c(c2)OCO3)c2ccc3c(c2)OCO3)CC1 [JZL184] (first compound 0.4 µM, partner dose 1 µM)	85.8	98.5	90.5	124	102	90.2	94.5	103	115	89	107	84.6	105	76.6	105	99.8
Clc1ccc(Nc2nnc(Cc3ccncc3)c3ccccc23)cc1 [vatalanib] + C/C(O)=C(\C#N)C(=O)Nc1cc(Br)ccc1Br [LFM-A13] (first compound 2 µM, partner dose 2 µM)	88.1	94.7	86.9	106	82.1	101	116	90.8	88.1	93.1	92.6	88.1	91.6	113	93.7	113
Cn1c(Nc2ccc(C(F)(F)F)cc2)nc2cc(Oc3ccnc(-c4ncc(C(F)(F)F)[nH]4)c3)ccc21 + Cc1cc(SCc2sc(-c3ccc(C(F)(F)F)c(F)c3)nc2C)ccc1OCC(=O)O [GW0742] (first compound 0.08 µM, partner dose 2 µM)	67.7	44.2	55.4	59.6	67.8		58	149	37	55.7	47.4	71.8	67.1	40.2	77.1	114
C=CCn1c(=O)c2cnc(Nc3ccc(N4CCN(C)CC4)cc3)nc2n1-c1cccc(C(C)(C)O)n1 + C/C(O)=C(\C#N)C(=O)Nc1cc(Br)ccc1Br [LFM-A13] (first compound 0.02 µM, partner dose 2 µM)		96.7	81.3	99.2	91.8		80.8	92.4	72.1	76.4	84	75	79.4	89.5	67.6	103
CC(C)C[C@H](NC(=O)[C@H](Cc1ccccc1)NC(=O)c1cnccn1)B(O)O [Bortezomib] + Cc1cc(SCc2sc(-c3ccc(C(F)(F)F)c(F)c3)nc2C)ccc1OCC(=O)O [GW0742] (first compound 0.001 µM, partner dose 2 µM)		83.2	63.7	43.1	102	104	87.3	94.2	67.8	72.3	94.8	20.4	79.8	111	19.4	95.2
Oc1cc(-c2nc(-c3ccccc3)[nH]c2-c2ccncc2)ccc1Cl + O=C(Oc1ccc([N+](=O)[O-])cc1)N1CCC(C(O)(c2ccc3c(c2)OCO3)c2ccc3c(c2)OCO3)CC1 [JZL184] (first compound 0.2 µM, partner dose 1 µM)	82.1	90.4	79.1	70.4	69.7		86.2	96.6	89.9	57.9	75	94.2	89.4	71.5	116	123
O=C(O)C(=O)Nc1sc2c(c1C(=O)O)CCNC2 + C/C(O)=C(\C#N)C(=O)Nc1cc(Br)ccc1Br [LFM-A13] (first compound 1.66667 µM, partner dose 2 µM)		98.2	94	108	88.4		113	101	86.5	94.3	102	110	66.4	118	92.8	90.7
